Assay results: PubChem BioAssay AID651820 (National Center for Advancing Translational Sciences (NCATS), 2012)
Among all 340,000 compounds or so, about 12,000 (3.5%) were called active. The inconclusive results got no clear call from the source; some entries with a clear call stand among them for comparison. Calls come from the whole dose curve; as a rule, active = well fitted inhibition curve with a large enough effect; inconclusive = small, poorly fitted or top-dose-only effect, or another doubt; inactive = no such curve, though single readings can be large or run the other way. Potencies of inconclusive entries are left out as doubtful fits.

experiment: qHTS Assay for Inhibitors of Hepatitis C Virus (HCV); details: Huh7.5.1 HCVcc-Cre (HCVcc is cell-culture hepatitis C virus) infection, luciferase reporter, 44 h; activity change, negative = inhibition: at 41.8 µM (top of the series) unless noted
Procedure, shortened: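 HCVcc-Cre virus at an moi near 0.5 was added right after compound to cells cultured 4 h from seeding (1,000 cells/well). Luciferase activity was determined 44 h later, 15 min after substrate addition at RT.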
% is set by controls: 0 for no effect and ±100 for the full control effect; potency is the fitted concentration of half-maximal effect; tags give direction and shape of the fitted curve.

Structure (SMILES) | Potency | activity change, negative = inhibition
Cc1ccc(-c2noc(CCC(=O)Nc3ccccc3N3CCN(C)CC3)n2)cc1 | inconclusive [inhibitor, single point] | 
CSCCC(NC(=O)c1ccccc1)C(=O)NCCCSc1ccccc1 (centres undefined) | inconclusive [inhibitor, single point] | 
O=C(C(Cc1ccccc1)N1C(=O)C2C3C=CC(C3)C2C1=O)N1CCCCC1 (centres undefined) |  | inactive: 1.38%
Cc1cc(=O)oc2c(C)c(OC(C)C(=O)NCC3CCC(C(=O)O)CC3)ccc12 (centres undefined) |  | inactive: 20.2%
NS(=O)(=O)c1ccc(N=Cc2c(O)n(C3CCCCC3)c(=O)n(C3CCCCC3)c2=O)cc1 | inconclusive [inhibitor, single point] | 
CNC(=S)N(CCc1ccc(S(N)(=O)=O)cc1)C1CC(=O)N(c2ccccc2F)C1=O (centres undefined) | inconclusive [inhibitor, single point] | 
Cc1ccc(-c2noc(C3CCCN(C(=O)c4ccc(F)cc4F)C3)n2)cc1 (centres undefined) | inconclusive [inhibitor, single point] | 
COc1cccc(C(=O)C2CN(c3ccccc3)CC2c2ccc(Cl)cc2)c1 (centres undefined) |  | inactive: 12.1%
COc1ccc(NC(=O)COc2ccccc2C#N)c(S(=O)(=O)N2CCCCC2)c1 | active: 10 µM | 
CCN(CC)S(=O)(=O)c1ccc(S(=O)(=O)Nc2c(C)nn(C)c2C)cc1 | inconclusive [inhibitor, partial curve] | 
Cc1ccc(Sc2ccc(CN3CCCCC3)cc2[N+](=O)[O-])cc1 | inconclusive [inhibitor, partial curve] | 
O=c1c2ccccc2nc2n1C(CSCc1ccc(Cl)cc1)CS2 (centres undefined) | active: 10 µM | 
O=C(NCCc1ccccc1)C(=O)NCCC1CCCCN1S(=O)(=O)c1ccccc1 (centres undefined) | inconclusive [inhibitor, single point] | 
Cc1nc2sc(C(c3ccco3)N3CCN(c4cccc(Cl)c4)CC3)c(O)n2n1 (centres undefined) | inconclusive [inhibitor, partial curve] | 
CC(=O)Nc1cc(C(F)(F)F)ccc1OCCOc1ccccc1 | active: 10 µM | 
CC1CCCC(NC(=O)COC(=O)c2n[nH]c3ccccc23)C1C (centres undefined) |  | inactive: -3.35%
O=C(NC1CCCC1)c1cc(-c2ccccc2Cl)on1 | inconclusive [inhibitor, partial curve] | 
Nc1nc(NCc2ccccc2)nc(-c2ccccc2)n1 | active: 10 µM | 
CCCCn1c(NS(=O)(=O)c2ccccc2)c(S(=O)(=O)c2ccc(C)cc2)c2nc3ccccc3nc21 | inconclusive [inhibitor, single point] | 
